From article PMC4336329 (PLoS ONE, 2015)
Among all 310,000 compounds or so, about 14,000 (4.5%) showed an effect of 50% or more. Effects have a minus sign here. Some of the results follow.

The compounds below were run against human ether-à-go-go-related gene (hERG) potassium channel (human, UniProt Q12809) (assay: primary screen, population patch clamp on CHO cells stably expressing hERG).
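Also: peak tail current of the secondary pulse compared with the same well before compound.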

human ether-à-go-go-related gene (hERG) potassium channel, sequence (Q12809 whole entry, looked up): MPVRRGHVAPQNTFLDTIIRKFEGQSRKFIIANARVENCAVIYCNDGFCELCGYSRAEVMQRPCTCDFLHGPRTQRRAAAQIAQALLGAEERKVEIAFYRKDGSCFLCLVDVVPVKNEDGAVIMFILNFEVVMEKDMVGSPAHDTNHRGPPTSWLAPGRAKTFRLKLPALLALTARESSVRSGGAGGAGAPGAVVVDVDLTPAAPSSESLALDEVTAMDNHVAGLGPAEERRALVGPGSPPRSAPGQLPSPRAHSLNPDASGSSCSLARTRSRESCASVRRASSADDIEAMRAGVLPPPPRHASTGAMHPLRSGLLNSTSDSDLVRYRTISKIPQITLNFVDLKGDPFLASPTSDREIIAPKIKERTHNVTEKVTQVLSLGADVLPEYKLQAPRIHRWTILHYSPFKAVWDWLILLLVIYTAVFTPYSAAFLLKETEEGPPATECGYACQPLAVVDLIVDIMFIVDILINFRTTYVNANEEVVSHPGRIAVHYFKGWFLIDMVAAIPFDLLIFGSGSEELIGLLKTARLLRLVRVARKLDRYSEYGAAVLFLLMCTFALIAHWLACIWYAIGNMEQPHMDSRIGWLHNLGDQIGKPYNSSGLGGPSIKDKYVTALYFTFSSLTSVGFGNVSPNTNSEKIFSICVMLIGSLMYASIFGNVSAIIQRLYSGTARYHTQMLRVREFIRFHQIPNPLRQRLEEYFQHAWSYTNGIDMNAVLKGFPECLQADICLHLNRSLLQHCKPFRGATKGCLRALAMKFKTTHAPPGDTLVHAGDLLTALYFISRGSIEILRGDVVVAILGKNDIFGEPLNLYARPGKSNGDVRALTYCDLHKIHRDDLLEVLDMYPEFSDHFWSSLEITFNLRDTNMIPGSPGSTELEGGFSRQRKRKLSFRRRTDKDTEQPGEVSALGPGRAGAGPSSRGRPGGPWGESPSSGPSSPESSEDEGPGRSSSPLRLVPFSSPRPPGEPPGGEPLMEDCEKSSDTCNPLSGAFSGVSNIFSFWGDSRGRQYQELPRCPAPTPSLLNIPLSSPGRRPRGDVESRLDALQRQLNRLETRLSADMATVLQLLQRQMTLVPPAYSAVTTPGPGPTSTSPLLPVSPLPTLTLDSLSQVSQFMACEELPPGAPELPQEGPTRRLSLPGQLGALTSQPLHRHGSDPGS

| SMILES | hERG current change (%, negative = inhibition) at 10uM [%] |
| --- | --- |
| Cc1cccc(NC(=O)CSc2nnc(-c3ccco3)n2CC2CCCO2)n1 (stereo not shown) | -23.4 |
| COc1cc2c(cc1OC)C(c1cccc(C)c1)CC(=O)N2 (stereo not shown) | -10.5 |
| CCC1(CC)Nc2ccccc2C(=O)N1c1ccc(OC)cc1 | -2.91 |
| O=C(CC1C(=O)NCCN1Cc1ccccc1)NC1CCCCCC1 (stereo not shown) | 8.11 |
| CCOc1cc(/C=C(\C#N)C(=O)Nc2ccc(S(N)(=O)=O)cc2)ccc1OCCN1CCOCC1 | 9.26 |
| CS(=O)(=O)N(CCc1ccccc1)CC(=O)Nc1ccccc1 | 6.23 |
| O=C(O)c1cc2c(=O)c3ccccc3oc2nc1C(F)(F)F | 17.7 |
| CSc1nc(-c2cccs2)c(C#N)c(=O)[nH]1 | 10.3 |
| O=C(Cc1ccc(S(=O)(=O)N2CCCC2)s1)N1CCN(c2ccc(F)cc2)CC1 | -56.2 |
| Cc1ccc(C)c(SCC(=O)NC(=O)NCc2ccccc2)c1 | 5.71 |
| CCc1noc(C)c1C(=O)OCC(=O)N1CCc2ccccc21 | -13.5 |
| COc1cccc(C(=O)Nc2ccc(S(=O)(=O)Nc3cc(C)nc(C)n3)cc2)c1 | 4.05 |
| CC(C)CN1C=C2C(=O)C(C)(OC(=O)CCc3ccccc3)C(=O)C=C2C=C1c1ccc(C#N)cc1 (stereo not shown) | -26.9 |
| CCC1Sc2ccccc2N(CC(=O)NCc2ccc3c(c2)OCO3)C1=O (stereo not shown) | -26.2 |
| COC(=O)c1ccc(NC(=O)C2C3C=CC(O3)C2C(=O)O)cc1 (stereo not shown) | 17.2 |
| CCOC(=O)C1=C(C)Nc2nc(SCC)nn2C1c1ccc(OC)cc1 (stereo not shown) | 21.9 |
| COc1cc(/C=C/C(=O)NC(C)C2CC3CCC2C3)cc(OC)c1OC (stereo not shown) | 10.6 |
| COc1ccc(CCC(C)N2CCc3ccccc3C2)cc1 (stereo not shown) | -61.7 |
| O=C(C1=C[C@H](c2coc3ccccc3c2=O)C[C@H](OCCCCO)O1)N1CCOCC1 | -16 |
| N#Cc1c(/N=C/c2cccs2)sc2c1CCC2 | -4.96 |
| O=C(O)Cn1c(O)c(C2=c3ccccc3=NC2=O)sc1=O | -2.7 |
| Cc1ccc(C)c(N2N=C(C(=O)Nc3ccc(S(=O)(=O)N4CCCC4)cc3)CCC2=O)c1 | -4.34 |

| SMILES | hERG current change (%, negative = inhibition) at 10uM [%] |
| --- | --- |
| O=C(CN1C(=O)CC(c2ccccc2)=Nc2ccccc21)NC1CCCCC1 | -11.4 |
| COc1ccc(C(CNc2ncnc3sc(C)c(C)c23)N(C)C)cc1 (stereo not shown) | -56.4 |
| COc1cc(CNC(=O)c2cccc(COc3ccc(Cl)cc3)c2)cc(OC)c1 | 10.9 |
| COc1ccc(C(=O)Oc2ccc(/C=N/O)cc2)cc1 | -2.47 |
| CN(C)C(=O)Oc1cc(OC(=O)N(C)C)cc(C(O)CNC(C)(C)C)c1.Cl (stereo not shown) | 12.9 |
| CCN(CC(=O)Nc1ccccc1Br)Cc1nc2ccccc2c(=O)[nH]1 | -22.3 |
| CCOC(=O)c1c(-c2ccccc2)csc1NC(=O)c1cccc(N2C(=O)CCC2=O)c1 | -5.54 |
| COC(=O)C1=C(C)N(C)C(=O)/C1=C\c1cccs1 | 7.88 |
| COc1cccc(-c2cc(C(F)(F)F)nc(-n3ccc([N+](=O)[O-])n3)n2)c1 | -6.33 |
| CCOc1ncccc1C(=O)NCCCSc1ccccc1 | -35.9 |
| CCOc1ccc2nc(NC(=O)Cn3cnc4c3c(=O)n(C)c(=O)n4C)sc2c1 | -41.9 |
| O=C(CNC(=O)c1ccc(Cl)cc1)Nc1ccc(Br)cc1C(=O)c1ccccc1 | -9.18 |
| COC(=O)c1c(NC(=O)CCC(=O)O)sc2c1CCCCC2 | 15.2 |
| CCCOc1ccc(N2C(=O)CC(N3CCN(C(=O)c4ccco4)CC3)C2=O)cc1 (stereo not shown) | -35.8 |
| CCC(=O)Nc1c(S(=O)(=O)c2ccc(C)cc2)c2nc3ccccc3nc2n1C(C)c1ccccc1 (stereo not shown) | -14.9 |
| COc1ccc(CNC(=O)C[C@H]2C(=O)N(Cc3ccccc3)C[C@@H]2Cc2ccccc2)cc1 | 2.76 |
| O=C(CNC(=O)c1ccc2c(c1)OCO2)N/N=C/c1cccc([N+](=O)[O-])c1 | 6.21 |
| CCc1ccc2c(CSc3nnnn3C)cc(=O)oc2c1 | -68.1 |
| Cc1ccc2c(c1)sc1nc(=O)ccn12 | -2.62 |
| CCCCN(Cc1cc2cc(OC)ccc2[nH]c1=O)S(=O)(=O)c1ccc(C)cc1 | -2.39 |
| COc1ccc(N2CCN(C(=O)CSc3nnc(C)c(=O)[nH]3)CC2)cc1 | -2.91 |
